This is one part of the list.
tested on: PfAP2-HC AP2 domain (GST-tagged); experiment: gcPBM binding intensity (ln(normalized median fluorescence intensity)); higher = stronger DNA binding
Procedure, shortened: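 GST-tagged P. falciparum DNA-binding domains produced in E. coli were incubated for 1 h on an Agilent 4 × 180k array of primer-extended double-stranded 36-bp intergenic genomic probes with negative controls. Binding intensity is the highest Masliner-normalised natural-log median intensity across replicate spots of either probe orientation, with bound protein detected by Alexa488 anti-GST antibody at 488 nm.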

Row | Sequence | gcPBM binding intensity (ln)
1 | GAATAATATATATATTGTACTTTTTATTTATATTAT [XGTACX_site3180] | 9.65
2 | AAAATATAATATAATGCACACATAAAACAAAAAAAA [CACACA_site8989] | 9.9
3 | AAAAAAAAATTAATATATAAAAGGATATATATATAT [GTGCAC_negctrl_site449] | 9.52
4 | ATATATATATTTATATGTACGAAATATAAAAAAAAA [XGTACX_site5054] | 9.63
5 | CTTTTTTTTTTTTTTACACACCCAAATCACATACAT [CACACA_site4051] | 9.87
6 | TGGAATAATACGCGTACACACATATATATATTAATA [CACACA_site131] | 9.87
7 | TGAACACACGAGCACACACACACATCTATATTTATA [CACACA_site6607] | 11.1
8 | AGGTATCAAAAATATGCATGCAATATTTTATGTAAT [TGCATGCA_site1055] | 9.71
9 | ATATAAAAATGTGTATGTACACACTTTATTTTTAAT [XGTACX_site5272] | 9.88
10 | ATCCTTTATTTTTTTTGTACATAAAAATAACTCGAG [XGTACX_site3885] | 9.6
11 | TTTTTCTATAAAAAATGTACATATTTTATGAAGGAA [XGTACX_site821] | 9.34
12 | AAATTACAAATACAAACACACAAATGTTTTTCATTC [CACACA_site3552] | 9.77
13 | TTAAAAAACCTTAGATGTACAGTTATATATAAAATA [XGTACX_site6688] | 9.58
14 | CATTAATAAAAAAAAAGTACAAAAAATATATATATT [XGTACX_site2091] | 9.65
15 | AAAATAAAAATATTCACACATACAAAAATTATACAA [CACACA_site5136] | 9.83
16 | ATTTTTTTACTGTAACCATATTTTTCCCTTTTATTC [CACACA_negctrl_site1143] | 9.75
17 | ATAATATATATATATAGTACATATATATAATATTCT [XGTACX_site2445] | 9.6
18 | TTTTTTTTTTTTTTTTGTACGTATCAAAAAATTTGT [XGTACX_site1023] | 9.18
19 | AAAAATAAATTTAGTTGTACTTTATTATTTTAAATA [XGTACX_site3067] | 9.4
20 | AATCAATAAATAAAAACATGCATATATATATATATA [TGCATGCA_site438] | 9.66
21 | AAAAAAAAAAAAATACGTACATACATACCTACATAT [XGTACX_site233] | 9.7
22 | TATATATATATGTGTACACAATTTATCTGTATTTAT [CACACA_site5945] | 10

Row | Sequence | gcPBM binding intensity (ln)
23 | AAGAAAAACTTTACGTGTACCAAACATCCTGCCAAC [XGTACX_site598] | 9.91
24 | ATAGACAGCGCACAAACACACAAACACCCACCCACA [CACACA_site8043] | 10.1
25 | AGTGATACTAATTTTTGTACGCATAAAAGAATATTC [XGTACX_site6055] | 9.6
26 | TATATTGATGATGATAGTACGTATGATTAGAAAAAA [XGTACX_site8989] | 9.72
27 | TCATATTATAATGTGAGTACATATAATAAATAAGTT [XGTACX_site2470] | 9.73
28 | ATGTTTGTCTATAGCTGTACCTATTTATAAAACGTA [XGTACX_site7157] | 9.58
29 | TTAATATGATATATATATATATATATATATATATAT [CACACA_negctrl_site683] | 9.36
30 | GTAAAAATTTTAAATACATGCAAGCGATTAATATGA [TGCATGCA_site80] | 9.61
31 | ATATTTCTGTCAAGCACACATAATATTAAAATATGT [CACACA_site4330] | 9.78
32 | ATTTAGAAAAATAAAACACACATATAGATGTAAATA [CACACA_site7853] | 9.87
33 | AGGAGACTTAAAAAAAGTACAAAAAAAAAAAAAAGC [XGTACX_site1576] | 9.84
34 | TATACATATATAAATGCATGTTGATATTAATAGTTA [TGCATGCA_site639] | 9.64
35 | ACAGAAAAAAAACACACACACATAATATACATACAT [CACACA_site1932] | 10.5
36 | TATTTTTTTTTCTTTTTATATATAATAATCTTCATT [GTGCAC_negctrl_site80] | 9.59
37 | GTATATATGTATATATGTACATATATACATTTTGTT [XGTACX_site7320] | 9.79
38 | CGTTAAAGGGAATGTATACACACGTTTCTCTATGTT [CACACA_site1198] | 9.83
39 | TTAAATAATATTAAATGTACATATTATTATGATATA [XGTACX_site6189] | 9.53
40 | TATATATTTAACAATCGTACATATTTACAAATATAA [XGTACX_site2131] | 9.2
41 | TTATAACAACTGGAATGATTAACAATAAATATTAAA [CACACA_negctrl_site1723] | 9.46
42 | CCTGTAAATAAATATAAATACATATTTCTAATATAT [GTGCAC_negctrl_site21] | 9.56
43 | AAAAATAAAATAAAGAAGGAAAATAAAAAAATAAGG [CACACA_negctrl_site1811] | 9.77
44 | AGGAGGTCAGTTCACAGTACCCAGGAAATCTACGGA [XGTACX_site2552] | 9.47

Row | Sequence | gcPBM binding intensity (ln)
45 | AAACATAAGAGACACACACACATATATAAATAAATA [CACACA_site7674] | 10.5
46 | AATTTCATAAATATAACTGAGAATAAATAAACAAAG [GTGCAC_negctrl_site146] | 9.59
47 | ACATATATTTAAAAATGTACTTACATATATTTTTTA [XGTACX_site6050] | 9.51
48 | GAAGTATTTATTTATGCATGCAAATATACAAAAAAA [TGCATGCA_site975] | 9.59
49 | TTTTATACATATTTTACACACTAAAATATACATATA [CACACA_site324] | 9.73
50 | TTATGTTGTAAATGCACACATACATAAACTCAGTTT [CACACA_site5639] | 9.77
51 | ATAAAATAAATATTTTGTTATTTATTTAATCTAATA [XGTACX_negctrl_site404] | 9.35
52 | TAAATATTTTTAGATGCATGCAATAATTACCCAAAG [TGCATGCA_site636] | 9.69
53 | TTTTTTTTTTCTGAAAGTACTAATTTCCTGGAGGAA [XGTACX_site759] | 9.13
54 | TTATTATTATTACTAGTGCATTAATTATATATGTAA | 9.48
55 | TTTCAAAAAAATAATGTGCACATTAGAAAATAAATA [GTGCAC_site9416] | 9.78
56 | ACCTCATAATATTTAACACACAAAATTAAATGTATG [CACACA_site6898] | 9.75
57 | ATAATGTAAAAGTAAACACACACATATATATATACA [CACACA_site8793] | 10.7
58 | GTCTTAAAAATTAAAACACACGTTCACTTTCATATT [CACACA_site5803] | 9.91
59 | TATATATATATATAATGTACATATATATAATATACA [XGTACX_site1552] | 9.59
60 | ATTTCTACTAAAAATACACACGATGATACAACGAAG [CACACA_site1755] | 9.68
61 | AATTAATAACAAAATAAACACACATATATAAATACA [CACACA_site8456] | 9.99
62 | TTTTAATAAATATACACACACAAAAAAAAAAAAAAA [CACACA_site3971] | 9.68
63 | TTTCACTTTTTCCAAAGTACATATATAAAAATTAAT [XGTACX_site6947] | 9.2
64 | ATATAAAAAAAAAAAAGTACACATAAACAAATGCAT [XGTACX_site4241] | 9.8
65 | AGATTATAAAATTCTACACACATATATACATATATA [CACACA_site3485] | 9.85
66 | GACCAATTCAAATATGCACACAAATTTGAAAACGAT [CACACA_site9202] | 10

Row | Sequence | gcPBM binding intensity (ln)
67 | AATATATAGAAACACACACACAAAAAAAAAAAAAAA [CACACA_site1326] | 10.1
68 | AATAAAAAGACATTCACACATATATATTATTTATAT [CACACA_site5936] | 9.81
69 | TTAAAATATAATATTCGTACTTATTCAAAAGAAAAA [XGTACX_site2122] | 9.06
70 | ATATGTAGAAGTAATGCACACATATGTATATATATA [CACACA_site8796] | 10.1
71 | CATAATACAGATAACACACACAATTATACATAAAAT [CACACA_site5742] | 10.2
72 | CTAATGATCATATATACACACACACTAATAAAAAAA [CACACA_site9329] | 10.4
73 | TATATTTAGATATATACACACATTAGCATTTTCATA [CACACA_site6902] | 9.72
74 | AAAGAATTTGCATATACACACAAAAAGATATATACA [CACACA_site6318] | 10
75 | GTATATATTTTTATTTAATAATTTGTTTATTTATTC [CACACA_negctrl_site647] | 9.73
76 | CATACATATACATACAGTACATATTTTTTGTCAATT [XGTACX_site7357] | 9.81
77 | AACGAAAACACTACGTGTACCAAACGTCCTACTAAC [XGTACX_site4915] | 9.86
78 | TTATATGGCTCCATTTGTACGCATCCATGTTTTTAT [XGTACX_site6590] | 9.84
79 | GTATGTATATATATATGTACATACTGTTTATCGTTA [XGTACX_site6168] | 9.79
80 | AAAAAAAAAAAAAAAGCACACATCATATTATAATTC [CACACA_site3355] | 9.7
81 | AAAAAAACATAACAAAATGAAACAAAACAAAAAGAA [GTGCAC_negctrl_site577] | 9.9
82 | AGTTATTAAAAATGTGCATGCAATGGTTTCTCTTAA [TGCATGCA_site634] | 9.79
83 | ATTTATAATGATTTTTTTAGTAATCTTGTTATTTTT [XGTACX_negctrl_site373] | 9.59
84 | AGGAGGTCAGTTCACAGTACCCAGAAACTCTACGAG [XGTACX_site2006] | 9.28
85 | TGAGCTTCAACAATATGTACATAAAATATATTACAT [XGTACX_site4763] | 9.69
86 | TTAATAAAAGCCCATGCACACCTTAGAAAGTTTTAT [CACACA_site8003] | 9.68
87 | GTATTATAGTATAATACACACCCAAATATTAAAAAG [CACACA_site7404] | 9.95
88 | TTTCTTAAAATGTTATGTACATATTTCGTTTCAAAG [XGTACX_site6102] | 9.49

Reference: the supplement of paper PMC11417369
